Consider 38 compounds from ChEMBL document CHEMBL5606458, “ASAP - ZIKV NS2B-NS3 protease fluorescence single point” (2024).

The target of this assay is Nonstructural protein 3 (Zika virus) (UniProt A0A024AXB9).
The mark [1] stands for this setting: PRVABC59, Concentration 15.0 uM, Number of replicates 1.0.
Where [2] appears, read: PRVABC59, Concentration 50.0 uM, Number of replicates 1.0.
Setting [3] is: PRVABC59, Concentration 10.0 uM, Number of replicates 1.0.

Structures are written as SMILES. About 160 (5.9%) of roughly 2,700 compounds showed an effect of 50% or more. The list shows a part of the results.

Sequence of UniProt A0A024AXB9 (A0A024AXB9 as listed by the source): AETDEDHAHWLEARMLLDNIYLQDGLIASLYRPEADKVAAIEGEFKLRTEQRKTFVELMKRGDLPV

With `O=C(NCc1cc(F)cc(Cl)c1)c1cc(Cl)ccc1NS(=O)(=O)c1ccc(Oc2ccccc2Cl)cc1`, the inhibition under setting [1] was 31.5%.

In the case of `CC(C)(O)CC(=O)Nc1cc(Cl)cc(C(=O)NC(C)(C)CO)c1`, the inhibition runs as follows: (PRVABC59, Concentration 49.5 uM, Number of replicates 2.0, Standard deviation 4.361404816398435 %) 3.87%; (PRVABC59, Concentration 99.01 uM, Number of replicates 2.0, Standard deviation 3.6424291033495835 %) 6.73%; (PRVABC59, Concentration 198.0 uM, Number of replicates 2.0, Standard deviation 1.2781790454201811 %) 5.16%.

Consider `COc1c(C)cnc(CN(C)C(=O)C2CCN(c3ccc(C=O)cc3)CC2)c1C`, for which the inhibition under setting [2] was 22.9%.

Regarding `CC[C@]1(c2ccc(NC(=O)C3CCN(c4ccc(C=O)cc4)CC3)cc2)CCC(=O)NC1=O`, the inhibition under setting [2] was found to be 21.4%.

As for `O=C(Nc1ccc(OC(F)F)cc1)c1cc(Cl)ccc1NS(=O)(=O)c1ccc(Oc2ccccc2Cl)cc1`, under setting [1], the inhibition is 57.7%.

Consider `O=Cc1ccc(N2CCC(C(=O)NC[C@H]3CCCN(C4CCCC4)C3)CC2)cc1`, for which the inhibition under setting [2] came to 25.1%.

Turning to `Cc1cccc(N2CCN(C(=O)C3CCN(c4ccc(C=O)cc4)CC3)C[C@@H]2C)c1`, the inhibition under setting [2] was 23.3%.

Regarding `Cc1cc(CO)c2cccc(CC(=O)NCc3ccc(S(N)(=O)=O)cc3)c2n1`, under “PRVABC59, Concentration 99.9 uM, Number of replicates 2.0, Standard deviation 1.3436712019086534 %”, the inhibition was -9.02%.

As to `O=Cc1ccc(N2CCC(C(=O)NCc3cc(F)ccc3Br)CC2)cc1`, the inhibition under setting [3] turned out to be 4.33%.

Regarding `CC(=O)N[C@@H](CCCN)C(=O)Nc1cccc(Cc2cccc3c(CO)cc(C)nc23)c1`, the inhibition runs as follows: (PRVABC59, Concentration 49.95 uM, Number of replicates 2.0, Standard deviation 1.358939825012392 %) 1.03%; (PRVABC59, Concentration 99.9 uM, Number of replicates 2.0, Standard deviation 0.3511877722800543 %) 17.3%.

For `O=C(c1ccccc1Cl)N1CCN(C(=O)c2cc(Cl)ccc2NS(=O)(=O)c2ccc(Oc3ccccc3Cl)cc2)CC1`, the inhibition under setting [1] was 15.8%.

`Cc1cc(NC(=O)c2cc(Cl)ccc2NS(=O)(=O)c2ccc(Oc3ccccc3Cl)cc2)cc(C)c1Br`: the inhibition under setting [1] was found to be 27.6%.

Turning to `O=C(c1nc2ccccc2[nH]1)N1CCC[C@H](n2cnc3ccccc32)C1`, the inhibition reads like this: (PRVABC59, Concentration 49.5 uM, Number of replicates 2.0, Standard deviation 2.107131691302147 %) 3.97%; (PRVABC59, Concentration 99.01 uM, Number of replicates 2.0, Standard deviation 2.096878290290114 %) 3.14%; (PRVABC59, Concentration 198.0 uM, Number of replicates 2.0, Standard deviation 0.3640057247302785 %) 0.803%.

With `Cc1ccc2ccccc2c1NC(=O)C1CCN(c2ccc(C=O)cc2)CC1`, the inhibition under setting [2] was found to be 19.8%.

Take `Cc1cc(CO)c2cccc(Cc3cccc(C(=O)Nc4cc(C)on4)c3)c2n1`: the inhibition (PRVABC59, Concentration 49.95 uM, Number of replicates 2.0, Standard deviation 0.5505632705734445 %) came to 18.4% and the inhibition (PRVABC59, Concentration 99.9 uM, Number of replicates 2.0, Standard deviation 1.053935557806211 %) was 51.2%.

`O=C(NCc1cnn2c1CNCC2)c1cccc2ncccc12`: the inhibition is -2.64% (PRVABC59, Concentration 49.5 uM, Number of replicates 2.0, Standard deviation 0.8803106038412188 %); -1.92% (PRVABC59, Concentration 99.01 uM, Number of replicates 2.0, Standard deviation 1.470636307117902 %); -1.7% (PRVABC59, Concentration 198.0 uM, Number of replicates 2.0, Standard deviation 2.500081737905502 %).

In the case of `Cc1cc(CO)c2cccc(C[C@H](NC(=O)c3cc(C(=O)O)[nH]n3)C(=O)O)c2n1`, the inhibition reads like this: (PRVABC59, Concentration 49.95 uM, Number of replicates 2.0, Standard deviation 1.6911148062176817 %) 1.37%; (PRVABC59, Concentration 99.9 uM, Number of replicates 2.0, Standard deviation 1.9620942703325182 %) 8.92%.

Turning to `CCCC[C@@H](CC)CN(C[C@@H](CC)CCCC)C(=O)C1CCN(c2ccc(C=O)cc2)CC1`, under setting [2], the inhibition was 24.3%.

`CC(=O)N(C)C1CCN(C(=O)c2cc(Cl)ccc2NS(=O)(=O)c2ccc(Oc3ccccc3Cl)cc2)CC1`: the inhibition under setting [1] was -3.52%.

As to `Cc1c(C(=O)N[C@@H](c2c[nH]nn2)C(C)C)ccc(O)c1NC(=O)c1ccncc1F`, the inhibition is, setting by setting: (PRVABC59, Concentration 49.5 uM, Number of replicates 2.0, Standard deviation 1.0725908066283456 %) 0.004%; (PRVABC59, Concentration 99.01 uM, Number of replicates 2.0, Standard deviation 2.2280871616759246 %) 0.286%; (PRVABC59, Concentration 198.0 uM, Number of replicates 2.0, Standard deviation 3.5286682264571616 %) 1.58%.

For the compound `CNC(=O)c1cc(Cl)ccc1NS(=O)(=O)Cc1cccc(C#N)c1`, the inhibition (PRVABC59, Concentration 49.5 uM, Number of replicates 2.0, Standard deviation 0.7845443660673714 %) is -4.96% and the inhibition (PRVABC59, Concentration 99.01 uM, Number of replicates 2.0, Standard deviation 0.817752710946075 %) was -7.22%.

Take `Cc1cc(N)cc(CNC(=O)c2cccc(Cc3cccc4c(CO)cc(C)nc34)c2)c1`: the inhibition by setting is: (PRVABC59, Concentration 49.95 uM, Number of replicates 2.0, Standard deviation 0.660675115468642 %) 22.4%; (PRVABC59, Concentration 99.9 uM, Number of replicates 2.0, Standard deviation 1.0067445744655332 %) 46.9%.

As for `COc1cc(F)ccc1CNC(=O)C1CCN(c2ccc(C=O)cc2)CC1`, the inhibition under setting [3] is 6.71%.

In the case of `CCC(=O)Nc1ccc(S(=O)(=O)Nc2ccc(Cl)cc2C(=O)NC)cc1`, the inhibition was -1.04% (PRVABC59, Concentration 49.5 uM, Number of replicates 2.0, Standard deviation 3.9651835158061277 %); 1.28% (PRVABC59, Concentration 99.01 uM, Number of replicates 2.0, Standard deviation 6.374730224823037 %); 2.52% (PRVABC59, Concentration 198.0 uM, Number of replicates 2.0, Standard deviation 2.8851147202870395 %).

Consider `Cc1cc(CO)c2cccc(NC(=O)c3ccc(N)nn3)c2n1`, for which the inhibition reads like this: (PRVABC59, Concentration 49.95 uM, Number of replicates 2.0, Standard deviation 1.640933261630777 %) 3.67%; (PRVABC59, Concentration 99.9 uM, Number of replicates 2.0, Standard deviation 25.978935740254965 %) -1.08%.

Take `Nc1ccc(Cl)c2ncccc12`: the inhibition runs as follows: (PRVABC59, Concentration 49.95 uM, Number of replicates 2.0, Standard deviation 10.856665376334321 %) 2.86%; (PRVABC59, Concentration 99.9 uM, Number of replicates 2.0, Standard deviation 9.901328830284072 %) 10.8%.

For `O=Cc1ccc(N2CCC(C(=O)NCCc3ccc(C(F)(F)F)cc3)CC2)cc1`, the inhibition under setting [2] came out at 25.7%.

Consider `O=Cc1ccc(N2CCC(C(=O)N(CC3CC3)C3CCCCC3)CC2)cc1`, for which, under setting [2], the inhibition amounted to 25.3%.

As to `CN(Cc1c(Cl)cccc1Cl)C(=O)C1CCN(c2ccc(C=O)cc2)CC1`, under setting [2], the inhibition stood at 21.3%.

`Cc1cc(Br)ccc1CNC(=O)c1cc(Cl)ccc1NS(=O)(=O)c1ccc(Oc2ccccc2Cl)cc1`: under setting [1], the inhibition was found to be 27.2%.

In the case of `COc1cc(COCc2c(F)cccc2F)nc(N2CCNCC2)n1`, the inhibition (PRVABC59, Concentration 49.5 uM, Number of replicates 2.0, Standard deviation 4.014215726370852 %) was 1.34%; the inhibition (PRVABC59, Concentration 99.01 uM, Number of replicates 2.0, Standard deviation 1.3567137127677436 %) was 0.451%; the inhibition (PRVABC59, Concentration 198.0 uM, Number of replicates 2.0, Standard deviation 2.4648693367218852 %) was 2.97%.

Regarding `O=C(c1cc(Cl)ccc1NS(=O)(=O)c1ccc(Oc2ccccc2Cl)cc1)N1CCC[C@H](c2nnc3ccccn23)C1`, the inhibition under setting [1] turned out to be 4.59%.

As to `O=Cc1ccc(N2CCC(C(=O)NCc3ccc(Cl)cc3F)CC2)cc1`, under setting [3], the inhibition was found to be 5.67%.

Regarding `CCn1ccnc(N[C@@H](Cc2c[nH]c3ccccc23)C(=O)NCc2ccccc2)c1=O`, the inhibition is, setting by setting: (PRVABC59, Concentration 49.5 uM, Number of replicates 2.0, Standard deviation 0.0 %) 1.29%; (PRVABC59, Concentration 99.01 uM, Number of replicates 2.0, Standard deviation 0.05654589783615587 %) 4.52%; (PRVABC59, Concentration 198.0 uM, Number of replicates 2.0, Standard deviation 0.6421999601301945 %) 9.85%.

As to `COc1ccc(S(=O)(=O)N[C@H]2CC[C@@H](C(=O)Nc3nc4ccccc4s3)CC2)cc1`, the inhibition (PRVABC59, Concentration 49.5 uM, Number of replicates 2.0, Standard deviation 1.7845592689374732 %) was 0.239%; the inhibition (PRVABC59, Concentration 99.01 uM, Number of replicates 2.0, Standard deviation 0.4054009263448292 %) was 2.41%; the inhibition (PRVABC59, Concentration 198.0 uM, Number of replicates 2.0, Standard deviation 0.6498339345072758 %) turned out to be 3.56%.

Turning to `COc1cc(CS(=O)(=O)C[C@H]2CCCO2)nc(N2CCNCC2)n1`, the inhibition (PRVABC59, Concentration 49.5 uM, Number of replicates 2.0, Standard deviation 1.8368765734625312 %) came out at 2.34%; the inhibition (PRVABC59, Concentration 99.01 uM, Number of replicates 2.0, Standard deviation 1.5078449779761687 %) is 3.44%; the inhibition (PRVABC59, Concentration 198.0 uM, Number of replicates 2.0, Standard deviation 2.492348660482503 %) amounted to 5.1%.

As for `COc1ccc(S(=O)(=O)Nc2ccc(C(=O)O)cc2)cc1`, the inhibition (PRVABC59, Concentration 49.5 uM, Number of replicates 2.0, Standard deviation 1.0137935505852833 %) amounted to 2.03%; the inhibition (PRVABC59, Concentration 99.01 uM, Number of replicates 2.0, Standard deviation 1.063246976754026 %) stood at 4.7%; the inhibition (PRVABC59, Concentration 198.0 uM, Number of replicates 2.0, Standard deviation 1.989546367228998 %) came to 3.61%.

Consider `CCC(CC)N1CCN(C(=O)C2CCN(c3ccc(C=O)cc3)CC2)CC1`, for which the inhibition under setting [2] is 15.9%.

Usually inhibition stands for the change of the read-out against control, counted positive when it falls.
